These results are taken from the supplement of paper PMC9588766.

Counter-ions that a name gives are not always drawn. Whole data set: some 1,900 compounds, median “cell viability of compound + 1 nM pemigatinib relative to pemigatinib-only (DMSO) wells” near 0.95, cut for the lowest 2% near 0.22. The list shows a part of the results.

This assay deals with PDC-DUC18828. Briefly: cell viability of compound + 1 nM pemigatinib relative to pemigatinib-only (DMSO) wells (fraction); PDC-DUC18828 is a patient-derived cholangiocarcinoma cell line; higher = less growth inhibition. Particulars: first compound 1 µM; pemigatinib concentration 1 nM; 72 h. The protocol:
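Selleck Bioactive library screen in the patient-derived FGFR2 fusion-positive ICC cell line PDC-DUC18828 (500 cells/well). Each compound was tested at 1 uM with 1 nM pemigatinib, in triplicate, for 72 h. Viability was read by CellTiter-Glo and normalised to plate DMSO controls. Value is the paper's averaged normalised viability.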
In the case of `COCCOc1nc(-c2ccc(Cl)c(Cl)c2)n(-c2ccc(NC(=O)CCl)cc2)n1` [MI-2 (MALT1 inhibitor)] + CCN1C(=O)N(c2c(F)c(OC)cc(OC)c2F)Cc2cnc3[nH]c(CN4CCOCC4)cc3c21 [pemigatinib], the cell viability was 0.802.
As for `CC(C(=O)O)c1cccc(Oc2ccccc2)c1` (stereo not given) [Fenoprofen calcium hydrate] + CCN1C(=O)N(c2c(F)c(OC)cc(OC)c2F)Cc2cnc3[nH]c(CN4CCOCC4)cc3c21 [pemigatinib], the cell viability amounted to 0.882.
Next, `CC(C(=O)O)c1cccc(Oc2ccccc2)c1` (stereo not given) [Fenoprofen Calcium] + CCN1C(=O)N(c2c(F)c(OC)cc(OC)c2F)Cc2cnc3[nH]c(CN4CCOCC4)cc3c21 [pemigatinib]: 0.984.
Next, `CCCc1ncc(C[n+]2ccccc2C)c(N)n1` [Amprolium HCl] + CCN1C(=O)N(c2c(F)c(OC)cc(OC)c2F)Cc2cnc3[nH]c(CN4CCOCC4)cc3c21 [pemigatinib]: 0.976; `O=C1NC(=O)/C(=C/c2ccc3nccc(-c4ccncc4)c3c2)S1` + CCN1C(=O)N(c2c(F)c(OC)cc(OC)c2F)Cc2cnc3[nH]c(CN4CCOCC4)cc3c21 [pemigatinib]: 0.954; `O=C1NC(=O)C(c2ccccc2[N+](=O)[O-])=C1Nc1ccc(O)c(Cl)c1` + CCN1C(=O)N(c2c(F)c(OC)cc(OC)c2F)Cc2cnc3[nH]c(CN4CCOCC4)cc3c21 [pemigatinib]: 0.869.
Next, `OC[C@H]1OC(O)[C@H](O)[C@@H](O)[C@@H]1O` (stereo not given in full) [Dextrose] + CCN1C(=O)N(c2c(F)c(OC)cc(OC)c2F)Cc2cnc3[nH]c(CN4CCOCC4)cc3c21 [pemigatinib]: 1.01; `CC(=O)OCC(=O)NCCCOc1cccc(CN2CCCCC2)c1` [Roxatidine Acetate HCl] + CCN1C(=O)N(c2c(F)c(OC)cc(OC)c2F)Cc2cnc3[nH]c(CN4CCOCC4)cc3c21 [pemigatinib]: 0.96; `CCn1cc(C(=O)O)c(=O)c2cc(F)c(N3CCNCC3)nc21` [Enoxacin] + CCN1C(=O)N(c2c(F)c(OC)cc(OC)c2F)Cc2cnc3[nH]c(CN4CCOCC4)cc3c21 [pemigatinib]: 0.969.
Take `C[C@H](NCc1ccc(OCc2cccc(F)c2)cc1)C(N)=O` [Safinamide Mesylate] + CCN1C(=O)N(c2c(F)c(OC)cc(OC)c2F)Cc2cnc3[nH]c(CN4CCOCC4)cc3c21 [pemigatinib]: the cell viability stood at 0.993.
The result for `OC[C@@H](O)[C@@H](O)[C@H](O)[C@H](O)CO` [D-Mannitol] + CCN1C(=O)N(c2c(F)c(OC)cc(OC)c2F)Cc2cnc3[nH]c(CN4CCOCC4)cc3c21 [pemigatinib] reads 0.933; that for `O=C(NC[C@H](O)CO)c1ccncc1Nc1ccc(I)cc1F` + CCN1C(=O)N(c2c(F)c(OC)cc(OC)c2F)Cc2cnc3[nH]c(CN4CCOCC4)cc3c21 [pemigatinib], 0.815; that for `Cc1ccc(-n2nc(C(C)(C)C)cc2NC(=O)NCc2cc(F)ccc2Oc2ccc3c(cnn3CCO)c2)cc1` [Pexmetinib (ARRY-614)] + CCN1C(=O)N(c2c(F)c(OC)cc(OC)c2F)Cc2cnc3[nH]c(CN4CCOCC4)cc3c21 [pemigatinib], 0.911.
The result for `O=C(Nc1ccc(S(=O)(=O)Nc2ccccc2Cl)c(Cl)c1)c1ccccn1` + CCN1C(=O)N(c2c(F)c(OC)cc(OC)c2F)Cc2cnc3[nH]c(CN4CCOCC4)cc3c21 [pemigatinib] reads 1.01; that for `Oc1ccc(-c2nc(-c3ccc(F)cc3)c(-c3ccncc3)[nH]2)cc1` + CCN1C(=O)N(c2c(F)c(OC)cc(OC)c2F)Cc2cnc3[nH]c(CN4CCOCC4)cc3c21 [pemigatinib], 1.02.
The result for `Cc1ccc(C(=O)Nc2ccc(CN3CCN(C)CC3)c(C(F)(F)F)c2)cc1C#Cc1cnc2[nH]ncc2c1` + CCN1C(=O)N(c2c(F)c(OC)cc(OC)c2F)Cc2cnc3[nH]c(CN4CCOCC4)cc3c21 [pemigatinib] reads 0.299; that for `Cc1ccccc1C(C(=O)NC1CCCCC1)N(C(=O)Cn1ccnc1C)c1cccc(F)c1` (stereo not given) + CCN1C(=O)N(c2c(F)c(OC)cc(OC)c2F)Cc2cnc3[nH]c(CN4CCOCC4)cc3c21 [pemigatinib], 1.06.
For the molecule `O=C(O)c1cc(=O)[nH]c(=O)[nH]1` [Orotic acid (6-Carboxyuracil)] + CCN1C(=O)N(c2c(F)c(OC)cc(OC)c2F)Cc2cnc3[nH]c(CN4CCOCC4)cc3c21 [pemigatinib], the cell viability was found to be 0.967.
With `CC1(C)S[C@@H]2[C@H](NC(=O)[C@H](N)c3ccccc3)C(=O)N2[C@H]1C(=O)O` [Ampicillin sodium] + CCN1C(=O)N(c2c(F)c(OC)cc(OC)c2F)Cc2cnc3[nH]c(CN4CCOCC4)cc3c21 [pemigatinib], the cell viability is 0.924.
The result for `CC1(C)S[C@@H]2[C@H](NC(=O)[C@H](N)c3ccccc3)C(=O)N2[C@H]1C(=O)O` [Ampicillin Trihydrate] + CCN1C(=O)N(c2c(F)c(OC)cc(OC)c2F)Cc2cnc3[nH]c(CN4CCOCC4)cc3c21 [pemigatinib] reads 1.01; that for `C[C@]12CCC(=O)C=C1[C@@H]1C[C@@H]1[C@H]1[C@@H]3[C@@H]4C[C@@H]4[C@@]4(CCC(=O)O4)[C@@]3(C)CC[C@@H]12` [Drospirenone] + CCN1C(=O)N(c2c(F)c(OC)cc(OC)c2F)Cc2cnc3[nH]c(CN4CCOCC4)cc3c21 [pemigatinib], 0.899; that for `COc1ccc2cc([C@H](C)C(=O)O)ccc2c1` [Naproxen] + CCN1C(=O)N(c2c(F)c(OC)cc(OC)c2F)Cc2cnc3[nH]c(CN4CCOCC4)cc3c21 [pemigatinib], 1.03.
The result for `N#Cc1cc(CN2CCC(Nc3ncnc4sc(Cl)cc34)CC2)ccc1F` + CCN1C(=O)N(c2c(F)c(OC)cc(OC)c2F)Cc2cnc3[nH]c(CN4CCOCC4)cc3c21 [pemigatinib] reads 0.943.
Consider `Cc1ncc([N+](=O)[O-])n1CC(C)O` (stereo not given) [Secnidazole] + CCN1C(=O)N(c2c(F)c(OC)cc(OC)c2F)Cc2cnc3[nH]c(CN4CCOCC4)cc3c21 [pemigatinib], for which the cell viability worked out at 0.975.
The result for `OCCn1cc(-c2cnc3nnn(Cc4ccc5ncccc5c4)c3n2)cn1` + CCN1C(=O)N(c2c(F)c(OC)cc(OC)c2F)Cc2cnc3[nH]c(CN4CCOCC4)cc3c21 [pemigatinib] reads 1.02.
